# Measurements reported in paper PMC4336329 (PLoS ONE, 2015).
# In all, about 310,000 compounds went through this assay and about 2,200 (0.71%) showed an effect of 50% or more. The effect is printed as a negative number. Some of the results follow.
# Target: human ether-à-go-go-related gene (hERG) potassium channel (human, UniProt Q12809)
# Experiment: primary screen, population patch clamp on CHO cells stably expressing hERG
# Sequence of human ether-à-go-go-related gene (hERG) potassium channel (Q12809 whole entry, looked up): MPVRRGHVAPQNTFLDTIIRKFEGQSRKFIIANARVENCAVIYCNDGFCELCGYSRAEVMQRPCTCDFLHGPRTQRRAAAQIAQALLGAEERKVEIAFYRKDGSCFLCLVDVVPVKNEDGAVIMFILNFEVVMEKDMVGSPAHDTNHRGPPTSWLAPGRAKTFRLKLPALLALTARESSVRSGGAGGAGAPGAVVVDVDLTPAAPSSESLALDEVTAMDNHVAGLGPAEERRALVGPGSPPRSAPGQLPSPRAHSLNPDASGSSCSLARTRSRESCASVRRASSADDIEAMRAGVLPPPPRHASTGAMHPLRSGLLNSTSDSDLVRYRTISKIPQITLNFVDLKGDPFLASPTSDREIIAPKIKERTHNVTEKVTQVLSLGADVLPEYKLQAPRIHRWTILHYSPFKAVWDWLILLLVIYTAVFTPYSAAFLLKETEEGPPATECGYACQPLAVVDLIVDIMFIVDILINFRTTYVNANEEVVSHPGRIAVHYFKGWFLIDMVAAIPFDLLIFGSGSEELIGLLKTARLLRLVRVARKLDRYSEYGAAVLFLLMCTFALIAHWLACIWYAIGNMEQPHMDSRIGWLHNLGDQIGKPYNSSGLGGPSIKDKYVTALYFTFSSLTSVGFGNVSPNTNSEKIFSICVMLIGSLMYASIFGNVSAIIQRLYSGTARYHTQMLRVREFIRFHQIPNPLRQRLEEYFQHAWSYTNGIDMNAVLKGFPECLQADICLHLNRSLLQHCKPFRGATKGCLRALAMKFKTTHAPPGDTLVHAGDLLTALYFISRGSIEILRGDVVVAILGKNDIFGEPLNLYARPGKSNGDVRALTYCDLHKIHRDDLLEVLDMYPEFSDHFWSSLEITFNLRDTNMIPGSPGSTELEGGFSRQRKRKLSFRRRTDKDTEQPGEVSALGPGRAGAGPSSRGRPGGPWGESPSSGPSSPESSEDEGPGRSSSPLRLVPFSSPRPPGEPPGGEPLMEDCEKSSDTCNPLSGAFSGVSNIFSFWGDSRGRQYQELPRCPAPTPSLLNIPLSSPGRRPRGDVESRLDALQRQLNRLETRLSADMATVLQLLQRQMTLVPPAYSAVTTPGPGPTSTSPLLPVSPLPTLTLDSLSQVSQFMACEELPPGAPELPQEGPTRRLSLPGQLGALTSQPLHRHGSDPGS
row,SMILES,"hERG current change (%, negative = inhibition) at 1uM [%]"
1,CC(=O)Nc1ccc(NC(=O)C(C)OC(=O)CNC(=O)c2sc3ccccc3c2Cl)cc1 (stereo not shown),19.7
2,Cc1ccc(-c2ccc(=O)n(CC(=O)N3CCN(c4cccc(C)c4)C(C)C3)n2)cc1 (stereo not shown),4.26
3,CCOc1ccc(C(=O)NNC(=O)c2cc(C)oc2C)cc1,12.6
4,Cc1ccc(-c2csc3nc(C)n(-n4c(C)ccc4C)c(=O)c23)o1,13.9
5,Cc1nn(C)c(C)c1CCC(=O)NC1CC(C)(C)Cc2c1cnn2-c1ccccc1 (stereo not shown),-8.83
6,Cc1ccc(NC(=O)CCN2C(=O)OC(C)(C)C2(C)O)cc1 (stereo not shown),13
7,COc1ccc(-n2nnnc2SC(C)C(=O)NC2CCCC2)cc1 (stereo not shown),11.8
8,CCCC(=O)N1CCN(c2ccc(NC(=O)c3cc4ccccc4o3)cc2Cl)CC1,-16.2
9,COc1cc(C(=O)N/N=C(\C)c2ccc(NC(=O)Cc3ccccc3)cc2)ccc1O,22.4
10,COC(=O)c1cc(Cl)c(NC(=O)C(C)C)cc1OC,8.28
11,S=C(NCc1ccccc1)NCc1ccc2c(c1)OCO2,4.21
12,COc1ccc(OC)c(NC(=O)COC(=O)c2ccc(S(=O)(=O)N3CCOCC3)cc2)c1,-2.63
13,Cc1cc(=O)oc2cc(OCC(=O)Nc3ccccc3C(N)=O)c(Cl)cc12,12.2
14,CC(C)(C)C1CCC(OC(=O)c2cncc(Br)c2)CC1 (stereo not shown),16.5
15,CCc1noc(C)c1C(=O)N1CC(C)OC(C)C1 (stereo not shown),12.5
16,CC(C)c1ccc(CN(C(=O)C2COc3ccccc3O2)C2CCS(=O)(=O)C2)cc1 (stereo not shown),8.41
17,CCOc1ccc(OCCOc2ncnc3ccccc23)cc1,7.05
18,O=C(NCc1ccccc1)C(=O)Nc1nc(-c2ccccc2)cs1,10.9
19,Cc1oc2cc(O)ccc2c(=O)c1-c1cnn(-c2ccccc2)c1,14.4
20,Cc1ccc(S(=O)(=O)N2CCCCC2CCNC(=O)C(=O)NC2CC2)cc1 (stereo not shown),-1.28
21,Cc1cc(C(=O)N2CCCC(C(=O)c3ccc(Cl)cc3C)C2)no1 (stereo not shown),4.44
22,O=C(CCCc1ccccc1)c1ccc2c(c1)OCCO2,7.04
23,Cc1nc(-c2ccc(F)cc2)c(CC(=O)N(C)CC(=O)Nc2ccccc2Br)s1,9.94
24,COc1ccccc1C(=O)N1CCN(Cc2cccnc2)CC1.O=C(O)C(=O)O,11.6
25,O=C(N/N=C/c1ccc2cccc(OCc3ccccc3)c2n1)c1ccc(Cl)cc1,11.1
26,S=C(c1ccc(-c2ccc(Cl)cc2Cl)o1)N1CCCCC1,12.1
27,Cc1cc(C(=O)N/N=C/c2ccc(Cl)c([N+](=O)[O-])c2)c(C)n1-c1ccc(F)cc1,-1.26
28,Cc1ccc(NC(=O)COc2ccccc2C(=O)NCCN(C)C)cc1,-0.314

row,SMILES,"hERG current change (%, negative = inhibition) at 1uM [%]"
1,CC1(C)CC(NC(=O)C23CCC(C)(C2Br)C3(C)C)CC(C)(C)N1 (stereo not shown),2.73
2,O=C1N=C(N2CCN(c3ccccc3)CC2)SC1Cc1ccccc1 (stereo not shown),-9.64
3,COc1ccc2nc(NC(=O)CSCc3c(C)noc3C)sc2c1,7.47
4,Cc1ccc(-n2c(N)c(C(=O)Nc3c(C)n(C)n(-c4ccccc4)c3=O)c3nc4ccccc4nc32)cc1,3.38
5,COc1ccc(NC(=O)c2cccc(N3C(=O)C4C5C=CC(C6CC56)C4C3=O)c2)c(OC)c1 (stereo not shown),3.14
6,COc1ccc(OCCCC(=O)Nc2ccc3c(c2)OCCO3)cc1,8.02
7,O=C(c1cccc2ccccc12)C1CCCN(C(=O)c2ccc(N3CCOCC3)cc2)C1 (stereo not shown),8.57
8,S=C(Nc1ccc(Cl)c(Cl)c1)N1CCOCC1,1.17
9,O=C(Nc1ccccc1Cl)c1cccc(NC(=O)C2CCCC2)c1,4.79
10,Cc1cccc(-c2n[nH]c(=S)n2/N=C/c2cccs2)c1,6.64
11,CCOC(=O)CNC(=O)C(NC(=O)C1CCC(C)CC1)C(C)CC (stereo not shown),6.54
12,O=C1CC(c2ccccc2)=Nc2ccccc2N1,0.924
13,COc1ccc(OC)c(S(=O)(=O)NCCc2cn3ccsc3n2)c1,8.51
14,CCN1CCN(C(=S)c2ccc(-c3ccccc3)cc2)CC1,8.77
15,COC(=O)c1cc(O)c(OCc2ccccc2)c(O)c1,15.6
16,COc1ccc(CN2C(=O)c3cccnc3C2Nc2cc(Cl)c(OC)cc2OC)cc1 (stereo not shown),10.2
17,CN(NC1OC(=O)c2ccccc21)c1c([N+](=O)[O-])cc(C(F)(F)F)cc1[N+](=O)[O-] (stereo not shown),9.73
18,COCCn1nnnc1C(c1ccccc1OC)N1CCN(c2ccccc2F)CC1.Cl (stereo not shown),-2.23
19,Cc1cc(C)c(C)c(S(=O)(=O)N2CCN(C(=O)c3ccc4c(=O)n5c(nc4c3)CCC5)CC2)c1C,4.77
20,Cc1c(NC(=O)Nc2ccccc2C(F)(F)F)c(=O)n(-c2ccccc2)n1C,15.9
21,COc1cc(OC)cc(C(=O)OCC(=O)Nc2cccc(C(C)=O)c2)c1,4.13
22,C/C(=N\O)C1(C)N(O)C(C)(C)C(c2ccco2)=[N+]1[O-] (stereo not shown),16.9
23,CCOc1ccc(NC(=O)c2ccc3c(c2)N(Cc2ccc(F)cc2)C(=O)CS3=O)cc1 (stereo not shown),9.04
24,CCC(=O)c1cc2c(C)cc(=O)oc2c(C)c1OC,8.31
25,Cc1ccc(Cl)c(OCC(=O)N(C)CC(=O)Nc2ccc(N3CCOCC3)cc2)c1,8.83
26,Cc1cccn2c(=O)c(C=O)c(N3CCC4(CC3)OCCO4)nc12,8.96
27,Cc1ccc(C(C)C)c(OCc2nnc(SCC(=O)Nc3nccs3)n2C)c1,5.57
